Source: PMC7577719, “The structural basis for Z α1-antitrypsin polymerization in the liver” (Science Advances, 2020)

Target: the molecule itself
Test: native gel or EMSA; NativePAGE 3 to 12% (w/v) acrylamide bis-tris gels, Western blot; ex vivo polymers (ZZ) as isolated from liver and M polymers induced by heating at 55°C for 48 hours

B1: Z α1-antitrypsin (E342K) polymers isolated from explant liver tissue of Z homozygotes (natural protein)
chain: not shown
notes: α1-antitrypsin, human, severe Z (E342K) allele; Linear unbranched polymer chains of heterogeneous length; Glycosylated, sensitive to PNGase F and EndoH (not matured in the trans-Golgi network); also called ZZ; ex vivo polymers
  binding result: binds
